# In PubChem BioAssay AID686979 (National Center for Advancing Translational Sciences (NCATS), 2013):
# The campaign covered roughly 420,000 compounds. About 50,000 (12%) were called active. This list was built around the results that the source calls inconclusive (neither active nor inactive); the mix of calls is not that of the screen. Calls come from the whole dose curve; as a rule, active = well fitted inhibition curve with a large enough effect; inconclusive = small, poorly fitted or top-dose-only effect; inactive = flat fitted curve, though single readings scatter. Potencies of inconclusive entries are left out as doubtful fits.
# Assay: qHTS for Inhibitors of human tyrosyl-DNA phosphodiesterase 1 (TDP1): qHTS in cells in presence of CPT; note: nearly all actives have a fitted effect of over 55% in size
# Conditions: chicken DT40 Tdp1-/-;hTDP1 cells + 20 nM CPT, ATP luminescence, 48 h; activity change, negative = growth inhibition: at 46.2 µM (top of the series)
# Outline: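 Chicken DT40 Tdp1-/- cells complemented with human TDP1, 400 cells/well, exposed to compounds plus 20 nM camptothecin for at least 48 h at 37 C; viability read as ATP content by CellTiter-Glo luminescence.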
# % is set by controls: 0 for no effect and ±100 for the full control effect; potency is the fitted concentration of half-maximal effect; tags give direction and shape of the fitted curve.
Structure (SMILES),"activity change, negative = growth inhibition",Potency
COc1ccccc1CNc1ccccc1F,inconclusive: -30.2% [inhibitor],–
CCOc1ccc(Cc2onc3c2C(=O)CC(C)(C)C3)cc1OCC,–,"inconclusive [inhibitor, single point]"
CC(C)=C1C2CCC1C1C(=O)N(c3nc(-c4ccc(C(C)C)cc4)c(C)s3)C(=O)C21 (stereo unspecified),–,"inconclusive [inhibitor, single point]"
Cc1cccc(CSc2nnc(CCCCCNC(=O)OC(C)(C)C)o2)c1,–,"inconclusive [inhibitor, single point]"
O=c1ccc2nc3ccccc3sc-2c1,–,active: 0.651 µM
CCC(C)(C)NC(=O)C(c1cccn1C)N(Cc1ccc(OC)cc1)C(=O)Cn1nnc2ccccc21 (stereo unspecified),–,"inconclusive [inhibitor, single point]"
Cc1cc(OCC(=O)c2cccc(C(F)(F)F)c2)n2cnnc2n1,–,"inconclusive [inhibitor, single point]"
NS(=O)(=O)c1cccc(NC(=O)CCSc2ccc(Cl)cc2)c1,–,"inconclusive [inhibitor, single point]"
Cc1c(C(=O)NCc2ccccc2Cl)sc2ncnc(N(C)C3CCCCC3)c12,–,"inconclusive [inhibitor, single point]"
O=C(O[C@@H]1[C@H](Cc2ccccc2)NS(=O)(=O)[C@H]2C[C@@H]3C=C[C@]12O3)c1ccccc1Br,–,"inconclusive [inhibitor, single point]"
Cc1cc(Nc2ccccc2C)n2nc(Cc3ccc(Cl)cc3)nc2n1,–,"inconclusive [inhibitor, single point]"
CC(=O)N1CCOc2ccc(S(=O)(=O)N3CCC(C(=O)Nc4cc(C)cc(C)c4)CC3)cc21,–,inactive
O=[N+]([O-])c1ccccc1NC1CCN(Cc2ccccc2)CC1,–,inactive
O=S(=O)(c1c(Cl)sc(Cl)c1Br)N1CCCC1,–,"inconclusive [inhibitor, partial curve]"
Cc1ccn2c(Nc3ccc4c(c3)OCCO4)c(-c3ccc(C)o3)nc2c1,–,active: 20.6 µM
Cc1ccccc1-c1nc(CN2CCC(C(=O)NCc3ccc(F)cc3)CC2)c(C)o1,–,active: 16.4 µM
CC(=O)c1ccc(NC(=O)c2ccc3c(c2)N(Cc2cccc(Cl)c2)C(=O)c2ccccc2S3=O)cc1 (stereo unspecified),–,"inconclusive [inhibitor, partial curve]"
Cn1c(CN2CCCC2)nc2cc(NC(=O)COc3ccc([N+](=O)[O-])cc3)ccc21,–,"inconclusive [inhibitor, partial curve, poor fit]"
Clc1ccccc1CN1CCSCC1,–,inactive
CCOc1ccc(NC(=O)C(C)C(Cc2ccc(C)cc2)C(=O)O)cc1 (stereo unspecified),–,inactive
COCCNC(=O)C1(C)CCN(C(=O)c2nc(C)oc2C)C1 (stereo unspecified),–,inactive
CCS(=O)(=O)N(CC(=O)Nc1cccc2ccccc12)c1ccc(OC)cc1,–,"inconclusive [inhibitor, single point]"
C[C@H](CO)N1C[C@H](C)[C@@H](CN(C)S(=O)(=O)c2ccccc2)OCCCC[C@H](C)Oc2ccc(NC(=O)CCC(F)(F)F)cc2C1=O,–,"inconclusive [inhibitor, single point]"
CC(NC(=O)CN1C(=O)NC2(CCc3ccccc32)C1=O)c1ccccc1 (stereo unspecified),–,inactive

Structure (SMILES),"activity change, negative = growth inhibition",Potency
Cc1ccc(Cn2c(SCCN3CCCCC3)nc3c2c(=O)n(C)c(=O)n3C)cc1,–,"inconclusive [inhibitor, single point]"
Cc1c(C(=O)COC(C)(C)C)[nH]c2ccccc12,–,active: 20.6 µM
Clc1cccc(CSc2nnc(-c3cccnc3)n2Cc2ccco2)c1,–,"inconclusive [inhibitor, single point]"
CCOC(=O)C(=O)NC1CC=CCC1c1ccc2c(c1)OCO2 (stereo unspecified),–,inactive
COc1cccc(C(=O)Nc2cccc(-c3ccccc3)c2)c1,–,"inconclusive [inhibitor, single point]"
COc1ccc(NC(=O)c2cc3c(s2)-c2c(C)cccc2OC3)cc1Cl,inconclusive: -34% [inhibitor],–
O=C(COc1cccc(C(F)(F)F)c1)NCC(c1ccco1)N1CCCC1 (stereo unspecified),–,inactive
CC(=O)NCCOc1nc(N2CCCCC2)nc(N2CCCCC2)n1,–,inactive
CCCCNC(=O)C1(C)CCN1C(=O)c1cccc(OC(F)(F)F)c1 (stereo unspecified),–,inactive
N#C/C(=C\c1ccc(OC(=O)c2ccc(Cl)s2)cc1)c1nc2ccccc2[nH]1,–,"inconclusive [inhibitor, partial curve, poor fit]"
CCCN(CCC)c1ccc(C2N=C(N)Nc3nc4ccccc4n32)cc1 (stereo unspecified),–,active: 23.1 µM
N#Cc1nc(COc2ccc(F)cc2)oc1N1CCC(Cc2ccccc2)CC1,–,"inconclusive [inhibitor, single point]"
Cn1c(SCc2nnc(-c3ccccc3Br)o2)nc2sc3c(c2c1=O)CCC3,–,"inconclusive [inhibitor, single point]"
CCOc1cc(C(=O)Nc2ccc(-c3cn4cccnc4n3)cc2)cc(OCC)c1OCC,–,active: 11.6 µM
C=CCNC(=S)NNC(=O)c1ccc(OCCCC)cc1,–,inactive
Cc1nc2c(sc(=S)n2Cc2ccco2)c(=O)n1CC(=O)Nc1cc(F)ccc1F,–,active: 11.6 µM
Cn1cccc1Cc1nnc(SCC(=O)NCc2ccccc2Cl)n1-c1ccc(F)cc1,–,"inconclusive [inhibitor, partial curve, poor fit]"
COC(=O)[C@@H](NCc1cccc(CN([C@H](C(=O)OC)C(C)C)S(C)(=O)=O)c1)C(C)C,–,"inconclusive [inhibitor, single point]"
CCOc1cc(NC(=O)c2ccco2)c(OCC)cc1NC(=O)CCc1ccccc1OC,–,active: 9.2 µM
CCOC(=O)c1c(NC(C)=O)sc2c1CCC(C=NCCCN(CC)CC)=C2Sc1ccccc1,–,active: 14.6 µM
CCN(CC)S(=O)(=O)c1cccc(NC(=O)COC(=O)C2CC3C=CC2C3)c1 (stereo unspecified),–,"inconclusive [inhibitor, single point]"
Cc1nc2c(ccc3nc(NC(=O)C4CC4)sc32)s1,–,"inconclusive [inhibitor, single point]"
CCOC(=O)c1c(C)[nH]c(C)c1C(=O)COC(=O)[C@@H](NC(=O)c1ccco1)C(C)C,–,inactive
Cc1c(C(=O)N(C)C2CC(C)(C)NC(C)(C)C2)oc2c(F)cccc12,inconclusive: -30.4% [inhibitor],–

Structure (SMILES),"activity change, negative = growth inhibition",Potency
COc1ccc(CC(=O)N/N=C(\C)c2ccccn2)cc1,–,active: 3.66 µM
O=C(NCc1ccccc1)c1ccc(NC(=O)N2CC3CCCN3c3ccccc32)cc1 (stereo unspecified),–,"inconclusive [inhibitor, single point]"
CN(C)c1ccc(N=Cc2nc(-c3ccccc3)oc2OC(=O)c2cccc(Cl)c2)cc1,–,"inconclusive [inhibitor, single point]"
CCn1c(N2CCC(C)CC2)nc2c1c(=O)n(C)c(=O)n2C,–,"inconclusive [inhibitor, single point]"
O=C(CSc1nc2ccccc2c(=O)n1Cc1ccc(F)cc1)NCc1cccs1,–,inactive
O=C(N/C(=C/c1cccc(Br)c1)c1nc(=S)[nH][nH]1)c1ccccc1,–,"inconclusive [inhibitor, single point]"
Cc1ccc2occ(/C=N/NC(=O)[C@@H](N)Cc3ccccc3)c(=O)c2c1,–,inactive
O=C(Nc1cccc(Cl)c1)C1C2C=CC3(O2)C1C(=O)N(CCCN1CCCCC1)C3C(=O)NC1CCCCC1 (stereo unspecified),–,inactive
Cc1ccc(C)c(N2CCN(S(=O)(=O)c3cc(C(=O)Nc4ccc(Oc5ccccc5)cc4)ccc3F)CC2)c1,–,"inconclusive [inhibitor, partial curve]"
COc1ccc(Br)cc1CNC(=O)c1cnc2sc(N3CCC(C)CC3)nn2c1=O,–,"inconclusive [inhibitor, full curve]"
CCOc1cc(N2CCOCC2)c(OCC)cc1NC(=O)COc1cccc(Cl)c1,–,"inconclusive [inhibitor, full curve]"
CN(C(=O)C1CCN(S(=O)(=O)c2cccs2)CC1)c1ccccc1,inconclusive: -30.2% [inhibitor],–
Cc1ccc(S(=O)(=O)c2nnn3c2nc(NCc2ccc4c(c2)OCO4)c2sccc23)cc1C,–,"inconclusive [inhibitor, single point]"
O=C(CCN1CCN(c2ccccc2F)CC1)c1ccc(Br)cc1,–,active: 2.59 µM
Cc1ccccc1Cc1ccc(Cl)nn1,–,inactive
COc1ccccc1C(CNC(=O)c1cc(C)nc2ccccc12)N(C)C (stereo unspecified),–,inactive
O=C(Oc1ccccc1)N1CCN(c2ccccc2F)CC1,–,"inconclusive [inhibitor, partial curve]"
C=CCNC(=O)c1cc2cc(Cl)ccc2nc1N,inconclusive: -30.9% [inhibitor],–
Cc1ccc(C(C)NC(=O)Cn2nc(C)c([N+](=O)[O-])c2C)cc1 (stereo unspecified),–,inactive
O=C(CSCc1ccccc1)Nc1cccc(F)c1,–,active: 7.31 µM
COc1cc(/C=C2/SC(=S)N(Cc3ccccc3)C2=O)ccc1OS(C)(=O)=O,–,"inconclusive [inhibitor, single point]"
Cc1cccc(NC(=O)C2CCCN2S(=O)(=O)c2ccc3nc(-c4ccccc4)[nH]c3c2)c1 (stereo unspecified),–,"inconclusive [inhibitor, single point]"
O=C(Nc1cc(C(F)(F)F)ccc1Cl)c1cc2nc3c(c(C(F)(F)F)n2n1)CCCC3,–,"inconclusive [inhibitor, single point]"
